Assay results: PubChem BioAssay AID488969 (Vanderbilt High Throughput Screening Facility, 2010)
Over roughly 110,000 compounds, “z-score” has its median near -0.1; the highest 2% begin near 2. The list shows a part of the results.

biological target: Metabotropic glutamate receptor 8 (Rattus norvegicus) (UniProt P70579); assay: rat mGluR8 modulators via GIRK flux, primary screen, cell-based, thallium flux, HTS (AID 488969); conditions: HEK293 rat mGluR8, GIRK (G protein-gated inwardly rectifying potassium channel) thallium flux, FluoZin2; at 10 µM; stronger effect = higher value; submaximal glutamate (EC20) added with thallium
Chain of UniProt P70579 (P70579 whole entry, looked up): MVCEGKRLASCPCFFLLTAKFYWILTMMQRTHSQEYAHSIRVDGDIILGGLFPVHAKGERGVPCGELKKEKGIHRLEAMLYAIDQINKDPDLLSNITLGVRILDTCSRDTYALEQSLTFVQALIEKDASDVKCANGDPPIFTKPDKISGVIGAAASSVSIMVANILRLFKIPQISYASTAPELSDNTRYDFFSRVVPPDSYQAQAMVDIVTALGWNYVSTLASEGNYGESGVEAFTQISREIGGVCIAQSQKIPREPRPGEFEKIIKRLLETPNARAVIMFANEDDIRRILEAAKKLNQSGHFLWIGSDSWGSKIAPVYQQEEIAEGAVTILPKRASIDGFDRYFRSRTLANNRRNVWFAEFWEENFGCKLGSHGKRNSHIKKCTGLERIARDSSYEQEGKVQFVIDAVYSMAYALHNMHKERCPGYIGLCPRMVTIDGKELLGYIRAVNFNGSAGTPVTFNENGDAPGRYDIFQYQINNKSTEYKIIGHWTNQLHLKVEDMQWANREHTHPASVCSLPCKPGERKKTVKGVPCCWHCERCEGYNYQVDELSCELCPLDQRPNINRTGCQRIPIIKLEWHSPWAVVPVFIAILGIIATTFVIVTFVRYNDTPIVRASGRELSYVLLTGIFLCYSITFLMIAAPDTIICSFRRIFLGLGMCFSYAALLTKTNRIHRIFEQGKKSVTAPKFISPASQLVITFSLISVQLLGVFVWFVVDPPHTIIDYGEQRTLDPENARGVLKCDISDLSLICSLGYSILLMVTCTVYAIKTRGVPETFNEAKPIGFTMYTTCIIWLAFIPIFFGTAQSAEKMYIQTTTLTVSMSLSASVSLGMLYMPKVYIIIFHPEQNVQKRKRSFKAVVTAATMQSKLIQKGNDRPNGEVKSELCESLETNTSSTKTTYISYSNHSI

Structure (SMILES) | z-score
COc1ccc(C(C#N)Nc2ccc(C)cc2)cc1 (configuration not stated) | -0.276
CCn1c(=O)n(CC)c2cc(S(N)(=O)=O)c(C)cc21 | 0.381
CC(=O)c1cnn(-c2cc(Oc3cccc(C)c3)ncn2)c1C | 2.24
Cc1ccc(C(C(=O)NC2CCCCC2)N2CCOCC2)cc1 (configuration not stated) | -0.899
Oc1c(/C=N/c2ncn[nH]2)ccc2ccccc12 | 0.0888
O=C(Nc1nc(NC(=O)c2ccco2)n(-c2ccccc2)n1)c1ccccc1 | 0.158
Cc1cc(C)n(-c2nc3sc4c(c3c(=O)[nH]2)CCCC4)n1 | -0.209
Cn1cnnc1Sc1cc(N2CCN(S(=O)(=O)c3ccc4ccccc4c3)CC2)ccc1[N+](=O)[O-] | 0.0836
Cc1cc2ncn(/N=C/c3ccc(-c4ccccc4)o3)c2cc1C | 0.235
c1cnc2ccc(C(c3nnnn3C3CCCCC3)N3CCCCC3)cc2c1 (configuration not stated) | -0.129
CC(C)n1c(/C=C/c2ccccc2)nc2ccccc21 | 0.0811
O=C(O)c1ccc(N/N=C/c2ccc(OC(=O)c3ccccc3Cl)cc2)cc1 | -0.31
Cc1noc(C)c1S(=O)(=O)NC1CCN(Cc2ccccc2)CC1 | 0.32
C=CCOc1ccc(C2C(C(=O)c3cccs3)=C(O)C(=O)N2c2nnc(C)s2)cc1 (configuration not stated) | -0.198
CCCn1nc2cc(C(=O)N(CC)c3ccc(OC)cc3)ccc2c1OCC | -0.2
O=C(NC1CCCC1)C1CC1c1ccccc1 (configuration not stated) | 0.0881
Oc1ccc(-c2nnc(-c3ccccc3)c(-c3ccccc3)n2)cc1 | 0.731
COc1ccc(Cl)cc1NC(=S)NCCc1c[nH]c2ccccc12 | 0.142
CCOC(=O)N1CCC(NC(=O)Cn2cccc2C(=O)c2ccccc2C)CC1 | -0.00445
N=c1sccn1CC(=O)Nc1cccc(Oc2ccccc2)c1 | -0.953
COc1ccc(Cl)cc1NC(=O)c1oc(C)nc1C | 0.237
COc1cccc(/C=N/n2cnnc2)c1OCc1ccccc1 | -0.0136
CC1=NN(/C(=N\c2nnc(C)s2)Nc2ccccc2)[C@H](c2cccc3ccccc23)S1 | -1.78

Structure (SMILES) | z-score
CC(=O)c1ccc(NS(=O)(=O)c2ccc(C)cc2)cc1 | -0.262
Cc1ccccc1OCC(O)Cn1c(NCCN(C)C)nc2c1c(=O)n(C)c(=O)n2C (configuration not stated) | -0.102
CCC(C)NS(=O)(=O)c1ccc(NS(=O)(=O)c2ccc(F)cc2)cc1 (configuration not stated) | -0.209
CS(=O)(=O)N(CC(=O)Nc1ccccc1Sc1ccccc1)c1ccc(F)cc1 | 0.0742
COc1ccc(/C=C2\SC(=S)N(CCCC(=O)Nc3ccccn3)C2=O)cc1OC | -0.307
Fc1ccc(-c2nnc(CN3CCN(c4ncc(C(F)(F)F)cc4Cl)CC3)o2)cc1 | -0.423
CCCOc1ccc(/C=N/O)cc1 | 0.0193
CC(=O)c1ccc(NC(=O)c2ccc(S(=O)(=O)N3CCCC3)cc2)cc1 | 0.269
CCCC(=O)Nc1ccccc1NC(=O)c1cc(OC)c(OC)c(OC)c1 | -0.11
COc1cc(OC)c(NC(=O)c2ccoc2C)cc1Cl | -0.687
CC(C)c1nnc(SCC(=O)NCc2ccc3c(c2)OCO3)n1C | -0.49
C[C@H](NC(=O)c1ccco1)C(=O)Nc1ccc(S(=O)(=O)N2CCCC2)cc1 | -0.00895
CCC(=O)N1c2ccc(S(=O)(=O)CCC(=O)NC3CCCC3)cc2CC1C (configuration not stated) | -0.055
CNC(=O)c1ccc(CNC(=O)OCC(F)(F)F)cc1 | 0.123
CC(=O)N1CCN(C(=S)NCCc2ccccc2)CC1 | -0.0723
Cc1cccc(N2CCN(CC(=O)Nc3ccc(-n4cnnn4)cc3)CC2)c1C | 0.12
O=c1c2cc3c(cc2[nH]c(=S)n1Cc1ccco1)OCO3 | 2.77
Cc1ccc(C(CCN(Cc2ccccc2)C(=O)c2ccco2)c2ccco2)cc1 (configuration not stated) | -0.0064
N#CC1=C(N)OC2=C(CCc3ccccc32)C1c1ccccc1 (configuration not stated) | -0.351
CN(C)N=Nc1ccc(S(=O)(=O)N2CCSC2C(=O)O)cc1 (configuration not stated) | 1.62
CCCCOc1ccc(-c2cnc3ccccc3n2)cc1 | -0.107
O=C(COC(=O)c1c(Cl)ccc(Cl)c1Cl)NC(=O)NCc1ccccc1 | -0.813
COc1ccc(S(=O)(=O)N2CN(CCc3ccc(OC)c(OC)c3)c3nc4ccccc4nc32)cc1 | -0.186

Structure (SMILES) | z-score
O=C(Nc1ccc2nc(-c3cccs3)c(-c3cccs3)nc2c1)N1CCOCC1 | -0.942
CC1(C)CC2(CC(C)(C)NC(=O)N2)NC(=O)N1 | -1.37
O=C(Oc1cccc2c(OC(=O)N3CCCC3)cccc12)N1CCCC1 | -0.117
N#Cc1nc(COc2ccc(Cl)cc2Cl)oc1N1CCN(c2ccccc2)CC1 | -1.08
COc1ccc([N+](=O)[O-])cc1NC(=O)Cc1ccccc1Cl | -0.0573
CCCCNC(=O)/C=C/c1ccc(OC)c(Br)c1 | 0.109
C=CCN(CC=C)C(=O)Cn1cnc([N+](=O)[O-])n1 | 0.102
CCCCn1c(CN2CCN(c3cccc(Cl)c3)CC2)nc2c1c(=O)n(C)c(=O)n2C | -0.183
Cc1cccc(S(=O)(=O)Nc2nc3ccccc3nc2NCc2ccco2)c1 | 0.8
CCCc1cc(=O)[nH]c(SCC(=O)Nc2c(C)cccc2C)n1 | 0.613
CC1CCCN(C(=O)Cc2ccc(F)cc2)C1 (configuration not stated) | 0.0202
COc1ccccc1Cc1nc(-c2ccc(Br)o2)no1 | -0.39
O=C1C=C(NCc2ccc(Cl)c(Cl)c2)C2(CCCCC2)O1 | -0.16
CCCCc1ccc(NC(=O)COc2ccc(C(=O)Nc3ccccc3C)cc2)cc1 | 0.039
CC(=O)c1ccc(OCC(O)Cn2nnc3ccccc32)cc1 (configuration not stated) | -0.632
CCN1C(=O)/C(=C/N(C)C)c2ccccc21 | 1.1
O=C(Nc1ccc(N2CCOCC2)cc1)c1ccc(Cl)nc1 | -0.278
CSc1ncccc1C(=O)OCC(=O)c1cc2ccccc2o1 | -0.011
Cc1nc2ccccc2n1-c1ccccc1 | -0.264
COc1ccc(Cc2nnc3n2N=C(c2cc4ccccc4o2)CS3)cc1OC | -1.18
CCC(C)C(NC(=O)c1ccccc1NC(=O)c1ccc(OC)cc1)C(=O)NCc1ccco1 (configuration not stated) | 0.162
CCOc1ccc(NC(=O)c2ccco2)cc1 | -0.0362
CCOC(=O)c1cc(NC(=O)c2cc(C)on2)cc(C(=O)OCC)c1 | -0.369

Structure (SMILES) | z-score
COC(=O)c1ccc(C(=O)OC)c(NC(=O)CN2CCN(c3ccc(OC)cc3)CC2)c1 | 0.304
O=C(COc1ccc2ccccc2c1Br)N1CCOCC1 | 0.168
CCn1c(SCC(=O)Nc2oc(-c3ccccc3)c(-c3ccccc3)c2C#N)nnc1-c1cc(OC)cc(OC)c1 | -2.12
CCC1C(=O)N(c2nc(C)cc(C)n2)N=C1C (configuration not stated) | -0.251
Nn1c(SCC(=O)Nc2ccc3c(c2)OCCO3)nnc1C(F)(F)F | 0.599
COCCN(CCOC)c1cc(C)c(C#N)c2nc3ccccc3n12 | -0.734
O=C(COC(=O)CNS(=O)(=O)c1ccc2ccccc2c1)Nc1ccc2c(c1)OCO2 | -0.165
CC1(C)Cc2c(C#N)c(N3CCN(C(=O)c4ccccc4)CC3)nc(Cc3ccccc3)c2CO1 | -0.48
Cc1cccc(OC(=O)NCCOC(=O)N(O)c2ccc(Cl)cc2)c1 | -0.609
COc1ccc(C)cc1C(=O)CCC(=O)Nc1ccccc1N1CCOCC1 | -0.0933
CC(=O)Nc1cc2nn(-c3ccccc3)nc2cc1Cl | -0.508
CC(C)CN(C(=O)COC(=O)Cc1n[nH]c(=O)c2ccccc12)C1CCS(=O)(=O)C1 (configuration not stated) | 1.83
CCC(Sc1nc(C)cc(=O)[nH]1)C(=O)Nc1nc(-c2ccccc2)cs1 (configuration not stated) | -1.23
O=C1Nc2ccccc2N(O)N1c1ccc(S(=O)(=O)N2CCCCCC2)cc1 | -0.245
CCOC(=O)C1CCCN(Cc2cccs2)C1 (configuration not stated) | -0.137
COc1ccc(C2(C(=O)NCCCN(C)C)CCOCC2)cc1 | 0.344
CNc1ncc(C(=O)c2ccc(Cl)cc2)s1 | -0.11
O=C(Nc1nnc(COc2ccc(Cl)cc2)s1)c1ccc([N+](=O)[O-])cc1 | 0.0224
Cc1cc(O)c(C(C)C)cc1NS(=O)(=O)c1ccccc1 | -0.88
COc1ccccc1C1C(C(N)=O)=C(C)Nc2nc(-c3ccc(Cl)cc3)nn21 (configuration not stated) | -0.394
Cn1c(C(=O)NCCN2CCCCCC2)cc2c(=O)n(C)c3ccccc3c21 | 1.86
CCOc1ccc(/C=N/NC(=O)c2c(C)n(C)c3ccc(OC)cc23)cc1 | -0.363
CCc1nnc(NC(=O)C2CCN(c3nc(C)cc(C)n3)CC2)s1 | 1.57

Structure (SMILES) | z-score
CC1(C)Cc2ccccc2C(NNC(=O)c2cccnc2)=N1 | 1.43
O=C(CSc1ccc(-c2ccco2)nn1)NCc1ccccc1 | 0.939
CCOC(=O)C(=CNCC(=O)O)C(=O)OCC | -0.23
O=C(Nc1cnc2ccccc2c1)N1CCOCC1 | 0.247
Cc1nc2ccc(NC(=O)c3ccc(Cl)c([N+](=O)[O-])c3)cc2s1 | -0.169
COC(=O)c1ccc(NC(=O)CN2CCN(S(=O)(=O)c3cc(Cl)ccc3OC)CC2)cc1 | -0.489
COc1cc(OC)c(OC)cc1/C=N/n1c(C)nnc1C | 1.66
Cc1ccccc1C(=O)NNC(=O)C(C)N1C(=O)c2ccccc2C1=O (configuration not stated) | -0.215
COc1ccc(/C=N/n2cc(-c3ccc(OC)cc3)nc2N)cc1 | 0.174
COc1ccc(NC(=O)CN2C(=O)C(C)SC(C)C2=O)cc1 (configuration not stated) | -0.0615
O=C(CSc1ccccc1Cl)N1CCC(c2nc3ccccc3s2)CC1 | -0.136
O=C(C#Cc1ccccc1)c1cccc([N+](=O)[O-])c1 | -0.189
Cc1ccc(CSc2nnc3nc(C)cc(C)n23)cc1 | 0.0482
CCOC(=O)c1c(NC(=O)c2ccc(C)cc2)sc2c1CC(C)(C)OC2 | -0.222
COC(=O)C1=C(C)N(C)C(=O)/C1=C\c1cccs1 | 0.0366
Cc1ccc(Oc2nnc(-c3cccs3)c3ccccc23)cc1C | -0.107
CCn1ncc(Br)c1C(=O)Nc1ccn(C23CC4CC(CC(C4)C2)C3)n1 | -0.117
O=C(c1cc2c(cc1Br)OCCCO2)N1CCCCC1 | 0.00904
CC1(C)CC(=O)CC(=Nc2ccc(C(=O)O)cc2)C1 | 2.15
Cc1sc2nc(CSc3nnc(Cc4cccs4)n3C3CCCCC3)[nH]c(=O)c2c1C | -0.363
